Measured values published in the supplement of paper PMC4206461.
The list shows a part of the results.

tested on: Pseudomonas aeruginosa PA14 dppA1-A5 penta deletion mutant; test: respiration area under curve with compound as sole nitrogen source, 24 h (OmniLog AUC (arbitrary units)); higher = more respiration / better utilisation as nitrogen source, active = 2000 or more; extreme values may be limits of the assay; conditions: plate: PM7
Method: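 Biolog Phenotype MicroArray plates PM6-PM8: each di/tripeptide is the sole nitrogen source. Tetrazolium reduction was read in the OmniLog for 24 h at 37°C and summarised as area under the respiration curve (arbitrary units). Values below 2000 count as no respiration.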

Respiration area under curve, active:
NC(N)=NCCC[C@H](NC(=O)[C@@H](N)Cc1c[nH]c2ccccc12)C(=O)O 12500
N[C@@H](CO)C(=O)N[C@@H](Cc1ccccc1)C(=O)O 2000
CC(C)C[C@H](NC(=O)[C@@H](N)[C@@H](C)O)C(=O)O 2320
N[C@@H](Cc1ccc(O)cc1)C(=O)N[C@@H](Cc1ccccc1)C(=O)O 6080
CC(C)[C@H](N)C(=O)N[C@@H](CCCN=C(N)N)C(=O)O 13200
C[C@H](NC(=O)[C@@H](N)CO)C(=O)O 2830

Respiration area under curve, inactive:
CSCC[C@H](N)C(=O)N[C@@H](CC(C)C)C(=O)O 1440
O=C(O)CNC(=O)[C@@H]1CCCN1 792
N[C@@H](Cc1c[nH]c2ccccc12)C(=O)N[C@@H](Cc1c[nH]c2ccccc12)C(=O)O 686
CSCC[C@H](N)C(=O)N[C@@H](CC(=O)O)C(=O)O 1880
